Results as given in the supplement of paper PMC9938546.
Where a name gives a salt, the structure may show the parent alone. The list shows a part of the results. Single values are uncertain, as repeats are few or missing.
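Note: viability estimated indirectly by image-based GFP quantification with live-cell imaging of the constitutively GFP-expressing human colorectal cancer line, no immune cells added.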

What follows are compounds tested on HCT116-GFP (assay: HCT116-GFP viability (GFP intensity) relative to untreated control, monoculture; higher = less cancer cell killing). Conditions: culture: HCT116-GFP monoculture; 10 µM; 72 h.
With `CC(C)C[C@H](NC(=O)[C@@H](O)[C@H](N)Cc1ccccc1)C(=O)O` [Ubenimex] the HCT116-GFP viability was 95%. `CNC(=C[N+](=O)[O-])NCCSCc1ccc(CN(C)C)o1` [Ranitidine hydrochloride] was tested, and the HCT116-GFP viability was 107%. `COC(=O)[C@H]1[C@H]2C[C@@H]3c4[nH]c5cc(OC)ccc5c4CCN3C[C@H]2C[C@@H](OC(=O)c2cc(OC)c(OC)c(OC)c2)[C@@H]1OC` [Reserpine] gave an HCT116-GFP viability of 79.2%. `CC(=O)O[C@]1(C(C)=O)CC[C@H]2[C@@H]3C=C(C)C4=CC(=O)CC[C@@H]4[C@H]3CC[C@@]21C` [Nomegestrol acetate] gave an HCT116-GFP viability of 92.3%. Compound `O=C1C(CC[S+]([O-])c2ccccc2)C(=O)N(c2ccccc2)N1c1ccccc1` (stereo unspecified) [Sulfinpyrazone] has an HCT116-GFP viability of 105%. In the case of `NS(=O)(=O)c1cc2c(cc1Cl)N=C(CSCc1ccccc1)NS2(=O)=O` [Benzthiazide], the HCT116-GFP viability is reported as 99.8%. `CC(=O)Oc1cc(C(F)(F)F)ccc1C(=O)O` [Triflusal] gave an HCT116-GFP viability of 90.4%. In the case of `CC(C)Cc1ccc([C@H](C)C(=O)O)cc1` [S-(+)-ibuprofen], the HCT116-GFP viability is reported as 101%. Work on `CS(=O)(=O)c1ccc([C@@H](O)[C@@H](CO)NC(=O)C(Cl)Cl)cc1` [Thiamphenicol] yielded an HCT116-GFP viability of 78.2%. Compound `O=c1[nH]cc(F)c(=O)[nH]1` [5-fluorouracil] has an HCT116-GFP viability of 22.1%. In the case of `C[C@]12C=CC(=O)C=C1CC[C@@H]1[C@@H]2[C@@H](O)C[C@@]2(C)[C@H]1CC[C@]2(O)C(=O)CO` [Prednisolone], the HCT116-GFP viability is reported as 107%. For `CN1CCN(CCCN2c3ccccc3Sc3ccc(S(=O)(=O)N(C)C)cc32)CC1` [Thioproperazine dimesylate], the HCT116-GFP viability was 86.8%. Work on `O=C(O)Cc1ccccc1Nc1c(Cl)cccc1Cl` [Diclofenac sodium] yielded an HCT116-GFP viability of 92%. `C[C@@H](c1ncncc1F)[C@](O)(Cn1cncn1)c1ccc(F)cc1F` [Voriconazole] showed an HCT116-GFP viability of 89.8%. Work on `COC(=O)C1=C(C)NC(C)=C(C(=O)OC)C1c1ccccc1[N+](=O)[O-]` [Nifedipine] yielded an HCT116-GFP viability of 82.8%. Compound `Nc1ccc(O)c(C(=O)O)c1` [Mesalamine] has an HCT116-GFP viability of 92.4%. `Clc1ccccc1CN1CCc2sccc2C1` [Ticlopidine hydrochloride] was tested, and the HCT116-GFP viability was 87.4%. `CCN(CC)CCOC(=O)C1(c2ccc([N+](=O)[O-])cc2)CCCC1` [Nitrocaramiphen hydrochloride] was tested, and the HCT116-GFP viability was 105%. `CO[C@@]1(NC(=O)C2SC(=C(C(N)=O)C(=O)O)S2)C(=O)N2C(C(=O)O)=C(CSc3nnnn3C)CS[C@@H]21` (stereo partly specified) [Cefotetan] showed an HCT116-GFP viability of 92.4%. `CN(C)CCCN1c2ccccc2CCc2ccc(Cl)cc21` [Clomipramine hydrochloride] gave an HCT116-GFP viability of 60.1%. `Cc1cc(C(C)(C)CC(C)(C)C)ccc1OCCOCC[N+](C)(C)Cc1ccccc1` [Methyl benzethonium chloride] showed an HCT116-GFP viability of 1.25%. Work on `Cc1cc(NC(=O)C2=C(O)c3ccccc3S(=O)(=O)N2C)no1` [Isoxicam] yielded an HCT116-GFP viability of 95.4%. Compound `C#C[C@]1(OC(C)=O)CC[C@H]2[C@@H]3CCC4=C[C@@H](OC(C)=O)CC[C@@H]4[C@H]3CC[C@@]21C` [Ethynodiol diacetate] has an HCT116-GFP viability of 72.3%. `Nc1ccc(S(=O)(=O)Nc2ncccn2)cc1` [Sulfadiazine] gave an HCT116-GFP viability of 95.7%. `CO[C@@]1(NC(=O)C(C(=O)O)c2ccc(O)cc2)C(=O)N2C(C(=O)O)=C(CSc3nnnn3C)CO[C@@H]21` (stereo partly specified) [Moxalactam disodium salt] gave an HCT116-GFP viability of 113%. Work on `C#C[C@]1(O)CC[C@H]2[C@@H]3CCC4=CC(=O)CC[C@@H]4[C@H]3CC[C@@]21C` [Norethindrone] yielded an HCT116-GFP viability of 104%. `CN(C)CCc1c[nH]c2ccc(C[C@H]3COC(=O)N3)cc12` [Zolmitriptan] gave an HCT116-GFP viability of 98.9%. `CN(C)CCC=C1c2ccccc2C=Cc2ccccc21` [Cyclobenzaprine hydrochloride] showed an HCT116-GFP viability of 78.6%. For `NS(=O)(=O)c1cc2c(cc1Cl)NCNS2(=O)=O` [Hydrochlorothiazide], the HCT116-GFP viability was 102%. Compound `C[N+]1(C)CCC(=C(c2ccccc2)c2ccccc2)CC1` [Diphemanil methylsulfate] has an HCT116-GFP viability of 114%. `CNNCc1ccc(C(=O)NC(C)C)cc1` [Procarbazine hydrochloride] showed an HCT116-GFP viability of 86.3%. `O=c1[nH]c(=O)n([C@H]2C[C@H](O)[C@@H](CO)O2)cc1F` [Floxuridine] showed an HCT116-GFP viability of 51.3%. `COc1cc(C)c(/C=C/C(C)=C/C=C/C(C)=C/C(=O)O)c(C)c1C` [Acitretin] was tested, and the HCT116-GFP viability was 105%. `CC(C)OC(=O)CCC/C=C\C[C@@H]1[C@@H](CC[C@@H](O)CCc2ccccc2)[C@H](O)C[C@@H]1O` [Latanoprost] gave an HCT116-GFP viability of 99.4%. For `CC(=O)Oc1cc(C(C)C)c(OCCN(C)C)cc1C` [Moxisylyte hydrochoride], the HCT116-GFP viability was 95.9%. `CC(c1cc2ccccc2s1)N(O)C(N)=O` (stereo unspecified) [Zileuton] gave an HCT116-GFP viability of 98.2%. Work on `C#C[C@]1(O)CC[C@H]2[C@@H]3[C@H](C)CC4=C(CCC(=O)C4)[C@H]3CC[C@@]21C` [Tibolone] yielded an HCT116-GFP viability of 110%. Work on `COc1cc(C(=O)N2CCOCC2)cc(OC)c1OC` [Trimetozine] yielded an HCT116-GFP viability of 105%. Work on `CC(=O)OCC(=O)[C@@]1(O)CC[C@H]2[C@@H]3CCC4=CC(=O)C=C[C@]4(C)[C@@]3(F)[C@@H](O)C[C@@]21C` [Isoflupredone acetate] yielded an HCT116-GFP viability of 110%. `CN(C)CCCOc1nn(Cc2ccccc2)c2ccccc12` [Benzydamine hydrochloride] showed an HCT116-GFP viability of 95.1%. `Nc1ccc(S(=O)(=O)Nc2ccc(Cl)nn2)cc1` [Sulfachloropyridazine] showed an HCT116-GFP viability of 94.6%. `COc1cc2nc(N3CCN(C(=O)C4CCCO4)CC3)nc(N)c2cc1OC` (stereo unspecified) [Terazosin hydrochloride] showed an HCT116-GFP viability of 106%. Compound `C[C@H]1[C@H](NC(=O)/C(=N\OC(C)(C)C(=O)O)c2csc(N)n2)C(=O)N1S(=O)(=O)O` [Aztreonam] has an HCT116-GFP viability of 101%. In the case of `CNCCC=C1c2ccccc2CCc2ccccc21` [Nortriptyline hydrochloride], the HCT116-GFP viability is reported as 73.1%. Work on `CCc1c2c(nc3ccc(OC(=O)N4CCC(N5CCCCC5)CC4)cc13)-c1cc3c(c(=O)n1C2)COC(=O)[C@]3(O)CC` [Irinotecan hydrochloride trihydrate] yielded an HCT116-GFP viability of 15.7%. `CC(C)(O/N=C(\C(=O)N[C@@H]1C(=O)N2C(C(=O)[O-])=C(C[n+]3ccccc3)CS[C@H]12)c1csc(N)n1)C(=O)O` [Ceftazidime pentahydrate] showed an HCT116-GFP viability of 102%.
